Measurements from PubChem BioAssay AID887 (National Center for Advancing Translational Sciences (NCATS), 2007).
About 1,100 (1.5%) of roughly 74,000 compounds were called active. The inconclusive results got no clear call from the source; some entries with a clear call stand among them for comparison. Calls come from the whole dose curve; as a rule, active = well fitted inhibition curve with a large enough effect; inconclusive = small, poorly fitted or top-dose-only effect; inactive = no such curve, though single readings can be large or run the other way. Potencies of inconclusive entries are left out as doubtful fits.

Target: Polyunsaturated fatty acid lipoxygenase ALOX15 (Homo sapiens) (UniProt P16050)
Chain of UniProt P16050 (P16050 whole entry, looked up): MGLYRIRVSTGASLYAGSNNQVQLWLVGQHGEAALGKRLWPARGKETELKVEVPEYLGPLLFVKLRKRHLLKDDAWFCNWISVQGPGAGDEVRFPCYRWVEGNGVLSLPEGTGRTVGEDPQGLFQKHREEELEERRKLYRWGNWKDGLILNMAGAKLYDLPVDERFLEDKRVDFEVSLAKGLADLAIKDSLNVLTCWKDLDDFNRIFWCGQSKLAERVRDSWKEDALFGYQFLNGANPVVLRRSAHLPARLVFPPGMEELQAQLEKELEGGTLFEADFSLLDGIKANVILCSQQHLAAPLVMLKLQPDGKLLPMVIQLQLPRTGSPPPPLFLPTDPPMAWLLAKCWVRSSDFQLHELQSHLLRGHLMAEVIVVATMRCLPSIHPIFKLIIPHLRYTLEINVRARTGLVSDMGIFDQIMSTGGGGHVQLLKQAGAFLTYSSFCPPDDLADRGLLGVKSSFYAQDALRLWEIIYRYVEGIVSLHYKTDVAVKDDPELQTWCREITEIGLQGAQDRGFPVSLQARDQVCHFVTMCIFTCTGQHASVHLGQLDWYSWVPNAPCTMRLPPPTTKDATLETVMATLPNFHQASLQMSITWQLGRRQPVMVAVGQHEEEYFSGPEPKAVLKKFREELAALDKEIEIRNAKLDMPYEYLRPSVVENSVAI
Assay: qHTS Assay for Inhibitors of 15-hLO (15-human lipoxygenase); note: nearly all actives have a fitted effect of over 55% in size
Conditions: purified 15hLO-1, xylenol orange hydroperoxide absorbance; activity change, negative = inhibition: at 57.1 µM (top of the series) unless noted
How it was run: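 Quantitative HTS in 25 mM Hepes pH 7.5 containing 0.01% Triton X-100: human 15hLO-1 at 40 nM, arachidonic acid at 50 uM, 6 min turnover. Product quantified via ferrous oxidation/xylenol orange, 573:405 nm absorbance ratio.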
% is set by controls: 0 for no effect and ±100 for the full control effect; potency is the fitted concentration of half-maximal effect; tags give direction and shape of the fitted curve.

| SMILES | Potency | activity change, negative = inhibition |
| --- | --- | --- |
| COc1ccc(N2CCN(C(c3cc4ccc(C)cc4[nH]c3=O)c3nnnn3C3CCCC3)CC2)cc1 (configuration not stated) | inconclusive [inhibitor, single point] | – |
| Nc1nc(Cl)cc(NCCO)n1 | – | inactive: -6.61% [at 11.4 µM] |
| CCCN(CCC)CCCNC(=O)CC1Nc2ccccc2NC1=O (configuration not stated) | inconclusive [inhibitor, single point] | – |
| OC(COc1cccc2ccccc12)CN1CCN(c2ccccn2)CC1 (configuration not stated) | inconclusive [inhibitor, single point] | – |
| O=C(c1cc(C(F)(F)F)cc(C(F)(F)F)c1)N1CCC2(CC1)CN(c1ccccn1)C2 | inconclusive [inhibitor, single point] | – |
| Cn1cnc2c(NCc3ccccc3)nc(NCCO)nc21 | inconclusive [inhibitor, single point] | – |
| O=C(Nc1ccccc1N1CCCC1)c1cccnc1 | inactive | – |
| CCN1/C(=C/C(=O)c2ccco2)Sc2ccccc21 | inconclusive [inhibitor, single point] | – |
| c1ccc(-c2oc3ncnc(NCCN4CCOCC4)c3c2-c2ccccc2)cc1 | inactive | – |
| c1ccc2[nH]c(SCc3ccc(-c4nnco4)cc3)nc2c1 | inactive | – |
| CN(CC(=O)NCc1ccc2c(c1)OCO2)S(=O)(=O)c1ccc(Br)s1 | inconclusive [inhibitor, full curve] | – |
| Nc1nc(N)c2nn(-c3ccc(C(=O)O)cc3)nc2n1 | – | inactive: 4.74% [at 11.4 µM] |
| N#Cc1ccc(CN2CCCC3(CCN(C(=O)c4cc(C(F)(F)F)cc(C(F)(F)F)c4)CC3)C2)cc1 | inactive | – |
| Cc1[nH]c2ccccc2c1C(O)CN1CCN(c2cccc(C(F)(F)F)c2)CC1 (configuration not stated) | inconclusive [inhibitor, partial curve] | – |
| Cc1ccc(C(=O)CSC2=NC(N)=C(C#N)C3(CCCCC3)C2C(N)=O)cc1 (configuration not stated) | inconclusive [inhibitor, partial curve] | – |
| O=C1C=C(NCc2ccc(Cl)cc2)CC(c2ccco2)C1 (configuration not stated) | inactive | – |
| CN1CCCC[C@@H]1CCN1c2ccccc2Sc2ccc(S(C)=O)cc21 (some centres not stated) | inconclusive [inhibitor, partial curve] | – |
| CC1CCCCC1n1c(=S)[nH]c2ccccc2c1=O (configuration not stated) | inconclusive [inhibitor, partial curve] | – |
| CC(C)(C)C1CCc2c(sc(N)c2C(N)=O)C1 (configuration not stated) | inconclusive [inhibitor, partial curve] | – |
| CN1CCN(C(=O)c2ccc(C(C)(C)C)cc2)CC1 | inconclusive [inhibitor, single point] | – |
| CCn1c(SCC(=O)N2CCCc3ccccc32)nc2ccccc2c1=O | inconclusive [inhibitor, partial curve] | – |
| Nc1ccc(CCNc2ncnc3c2ncn3[C@@H]2O[C@@H](CO)[C@H](O)[C@@H]2O)cc1 | inactive | – |
| CCOc1cccc(CN2CCN(c3cccc(C(F)(F)F)c3)CC2)c1O | inactive | – |
| Cc1ccc(C(=O)CCNc2ccc(F)c(Cl)c2)o1 | inconclusive [inhibitor, single point] | – |

| SMILES | Potency | activity change, negative = inhibition |
| --- | --- | --- |
| CCc1ccc(C(=O)CSC2=C(C#N)C(c3ccco3)C(C(C)=O)=C(C)N2)cc1 (configuration not stated) | active: 10 µM | – |
| C=CCSc1nnc(-c2ccc(Cl)cc2Cl)o1 | inconclusive [inhibitor, single point] | – |
| CCOC(=O)c1ccc(NC(=O)Nc2ccc3c4c(cccc24)C(=O)N3CC)cc1 | inconclusive [inhibitor, partial curve, poor fit] | – |
| COC(=O)c1[nH]c(C)c(/C(O)=C2\C(=O)C(=O)N(CCN(C)C)C2c2ccc(C)o2)c1C (configuration not stated) | inactive | – |
| CCN1C(=O)c2cccc3c(S(=O)(=O)NCc4ccco4)ccc1c23 | inconclusive [inhibitor, single point] | – |
| CN1CCc2c(sc3c2c(=O)n(-c2ccccc2)c2nnc(SCc4ccc(Cl)cc4)n32)C1 | inactive | – |
| S=c1nc(-c2cccc(Br)c2)[nH][nH]1 | inconclusive [inhibitor, partial curve] | – |
| COc1cccc(-c2cncnc2NCc2cccs2)c1 | inconclusive [inhibitor, single point] | – |
| Fc1ccc(-n2[nH]nnc2=S)cc1N1CCCC1 | active: 25.1 µM | – |
| Cc1cc(C)n(-c2ccc(C(=O)Nc3nc4ccccc4s3)cc2)n1 | inconclusive [inhibitor, single point] | – |
| CC(=O)Nc1ccc2nc(-c3ccccn3)[nH]c2c1 | inactive | – |
| CCNc1ncc2ncc(=O)n(CCOC)c2n1 | inconclusive [inhibitor, single point] | – |
| Cn1cccc1Cc1nnc(SCC(=O)Nc2ccc3c(c2)OCCO3)n1CCc1ccccc1 | inconclusive [inhibitor, single point] | – |
| CC(=O)OC[C@@H]1O[C@H](C/C=N\OC[C@@H](O)COCc2ccco2)C=C[C@@H]1OC(C)=O | – | inactive: 12.2% [at 11.4 µM] |
| COc1ccccc1-n1nnnc1SCC(=O)NC1CCCC1 | inconclusive [inhibitor, single point] | – |
| COc1ccc(Br)cc1CNC(=O)C1CCN(S(=O)(=O)N2CCCC2)CC1 | inactive | – |
| CCCCOCCCn1c(-c2ccco2)nc2nc3ccccc3nc21 | inconclusive [inhibitor, single point] | – |
| CCOC(=O)c1cc2c(=O)n3ccccc3nc2n(Cc2ccco2)c1=NC(=O)c1cccnc1 | inconclusive [inhibitor, partial curve] | – |
| CC1(C)Cc2c(C#N)c(N)sc(=S)c2CO1 | inconclusive [inhibitor, partial curve] | – |
| C/C(=C1/SC(=S)N(CCC(=O)O)C1=O)c1ccc(O)cc1 | inconclusive [inhibitor, single point] | – |
| Cc1c(C(=O)CN2CCOCC2)[nH]c2ccccc12 | inconclusive [inhibitor, single point] | – |
| Cc1cccc(S(=O)(=O)C(C#N)c2nc3ccccc3nc2N2CCCC2)c1 (configuration not stated) | inconclusive [inhibitor, partial curve] | – |
| Cc1ccc(-n2c(N)c(C(=O)N3CCOCC3)sc2=S)c(C)c1 | inconclusive [inhibitor, partial curve] | – |
| Cc1ccnc(NC(=O)C2CCC(CNc3c(N4CCCC4)c(=O)c3=O)CC2)c1 (configuration not stated) | inconclusive [inhibitor, partial curve, poor fit] | – |

| SMILES | Potency | activity change, negative = inhibition |
| --- | --- | --- |
| CCN(CC)c1ccc2oc(=O)c(C)nc2c1 | active: 25.1 µM | – |
| COC(=O)c1ccc(C(NC(=O)OCc2ccccc2)/C(I)=C/[C@@H](C)C(=O)NCc2ccc(OC)c(O)c2)cc1 (some centres not stated) | inactive | – |
| CCc1ccc(NS(=O)(=O)c2ccc3[nH]cc(C(=O)NCC4CCCO4)c(=O)c3c2)cc1 (configuration not stated) | inactive | – |
| COc1ccc(C(c2nnnn2Cc2cccs2)N2CCN(c3ccc(F)cc3)CC2)cc1OC (configuration not stated) | inconclusive [inhibitor, partial curve] | – |
| Cc1c(C(=O)O)[nH]c2c1C(=O)CC(c1ccccc1)C2 (configuration not stated) | inconclusive [inhibitor, partial curve] | – |
| O=C(O)C1Nc2c(O)cccc2C2C=CCC12 (configuration not stated) | inconclusive [inhibitor, partial curve] | – |
| COC(=O)N1[C@H](C)C=C[C@]1(Cc1ccccc1)C(=O)NCc1ccccn1 | inconclusive [inhibitor, single point] | – |
| COCC(=O)N1CCC2(CC1)CN(C(c1ccccc1)c1ccccc1)C2 | inactive | – |
| COc1ccc(C(=O)N2CCC3(CC2)CN(c2ccccn2)C3)cc1 | inactive | – |
| Oc1ccccc1NCC(O)Cn1ccc2ccccc21 (configuration not stated) | active: 6.31 µM | – |
| C=CCn1c(SCC(=O)c2ccc(CNC(C)=O)o2)nc2scc(C3CC3)c2c1=O | inconclusive [inhibitor, single point] | – |
| N#CCCn1c(=O)c(-c2ccccc2)nc2cnc(OCc3ccccc3)nc21 | inactive | – |
| CC(=O)C1=C(C)NC(SCC(=O)c2ccccc2)=C(C#N)C1CC(C)C (configuration not stated) | active: 3.98 µM | – |
| Cc1ccccc1OCc1nnc(SCC(=O)Nc2ccc3c(c2)oc2ccccc23)n1C | inconclusive [inhibitor, single point] | – |
| O=c1c2ccccc2nc2n1CCC2 | active: 3.16 µM | – |
| CN=C(NC#N)Nc1ccc(C2=NNC(=O)C[C@@H]2C)cc1 | inconclusive [inhibitor, single point] | – |
| CCOC(=O)CCC(=O)NCc1ccc2[nH]c(C)cc2c1 | inconclusive [inhibitor, single point] | – |
| C=CCN1C(=O)/C(=C2\SC(N3CCOCC3)=NC2=O)c2cc(Br)ccc21 | inconclusive [inhibitor, single point] | – |
| S=C(c1ccc(-c2cccc(Cl)c2)o1)N1CCOCC1 | inconclusive [inhibitor, partial curve] | – |
| CCOC(=O)CSc1nc2c(sc(=S)n2CCc2ccccc2)c(=O)n1Cc1ccco1 | inconclusive [inhibitor, partial curve] | – |
| CCn1c2ccccc2c2cc(C3C(C#N)=C(C)NC(C)=C3C#N)ccc21 | inactive | – |
| Cc1c(C(=O)NCCC2=CCCCC2)oc2ccc(S(=O)(=O)N3CCOCC3)cc12 | active: 15.8 µM | – |
| C/C(=C\C(=O)c1ccc(C)o1)Nc1ccc2c(c1)OCO2 | inactive | – |
| Cc1cccc(-n2c(O)c(C=Nc3ccc4c(c3)OCO4)c3ccccc3c2=O)n1 | inconclusive [inhibitor, partial curve] | – |
